# Reference: the RNAGym collection of RNA variant scans (doi:10.1093/nar/gkz1192)
# The source gives no read counts; variants with many changes may rest on few reads.
# B1: CPEB3 Ribozyme (parent)
# chain: UAACAGGGGGCCACAGCAGAAGCGUUCACGUCGCAGCCCCUGUCAGAUUCUGGUGAAUCUGCGAAUUCUGCUGUAUAUCUC
# Variants of: B1
# Test: self-cleavage, relative activity (ratio to wild type); higher = more cleavage; in vitro, sequencing
# In short: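 For each CPEB3 ribozyme variant, relative activity is its cleaved/total read fraction divided by the unmutated ribozyme's. Barcoded error-prone PCR libraries were transcribed by T7 RNA polymerase (5 hours, 37°C) and held in DNase I for 15 min before an EDTA stop, with cleavage occurring throughout. Template-switching reverse transcription and Illumina sequencing were used to read the RNAs. A 5-read minimum applied, and results are the mean of three batches.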
row,Variant,self-cleavage
1,A18C A21G U41C U43A C50G,0.03
2,G16U A20U U25C U51C,0.06
3,C17U U31A A35U U49C,0.07
4,C17G U26C A28G A56U,0.19
5,A18C U31C A45C U72C U76C A77G,0.11
6,A18C U25A U43C A65C G73A,0.22
7,C17U C23A A35G A45G,0.23
8,A18C U67C U72C,0.2
9,C17G G19U A47G U66C,0.05
10,C17U A21G U78C U80C,0.24
11,A18G A20G A35G U43C U74A A77U,0.55
12,G16C C17U U25C A35G A47U U69A,0.08
13,A18C U26A C62A U67A C68U U76C U80A,0.06
14,A18G A20G U74C U76C,0.45
15,C17G A18G U25A C27U U76C,0.04
16,A18C U26C A35G U80G,0.52
17,C17U A45U U48C U58C,0.13
18,G16U U25C U58A C62U U69C,0.12
19,C17A U25C U54A A56G,0.19
20,A18G A20G C23G U25C U72C U80C,0.09
21,A18G A20C U54C U67C U72C,0.12

row,Variant,self-cleavage
1,A18G A20G A64U U66C,0.17
2,A18C U31C A47U U49C A57U,0.05
3,G16C U49C A64G U80C,0.07
4,A18C C40U G53U,0.43
5,C17A U31C U43A U72C,0.18
6,C17U U43A U69C,0.26
7,A18C A20U U60C A65G,0.33
8,A18C C40U C50A G55U U69C U78A,0.1
9,G16U A35U A65G,0.09
10,A18C A28G U74C,0.31
11,A18G A20G U26A U69C U78C,0.89
12,A18C A21G G42U U60C U69A U74C,0.07
13,A18C U51C G53U A57G A65G U80A,0.14
14,C17U A64G U78A,0.17
15,A18G A20G A21G A28U U69C,0.36
16,A18G A20G G33U A35C U66C U72C,0.16
17,C17U U26A U41C A56U U72C,0.13
18,A18C U31C A45G A65G C79U,0.06
19,C17U A45G U69A,0.16
20,C17U U26A U74A,0.26
21,G16U A20G U25C,0.25

row,Variant,self-cleavage
1,A18C U26A G52C A64G U76C U80A,0.23
2,A18C A65G U69A,0.19
3,G16U C34A U43C U67A,0.07
4,A18C C32U G33A U72C U74A,0.3
5,A18C C40U G55U U69C,0.29
6,G16C A18U G19U,0.4
7,A18C A35G U41A U60C,0.06
8,G16C U43C A57U C62U,0.19
9,A18C A28U U78C,0.13
10,G16C U48A U67A U78C,0.07
11,C17U A47G U72C,0.39
12,A18C U31C U43C U54C C59A,0
13,G16C A20G U51A A57C,0.11
14,A18G A20G U25C U80C,0.09
15,A18C U49A U58A U67C,0.09
16,G16U U26A G30A U43G,0.21
17,C17U U43A G63A U69C U80C,0.53
18,C17A U49G A75U,0.13
19,C17U A21G G52A,0.15
20,C17A U25C U41C,0.15
21,A18G A20G U26A A28G A64U,0.16

row,Variant,self-cleavage
1,A18C U51A U72A U78C,0.2
2,C17G U25C C34G,0.13
3,A18C A28G U69C,0.08
4,A18C U43A A64G,0.17
5,G16C A20G U43A U60A A64U U78C,0.13
6,A18C G36A U41C U69A C71U,0.08
7,A18G A20G U48C,0.38
8,A18C A35G U51C U78C,0.86
9,A18G A20G U26G U43C U51A,0.37
10,A18C G30A U48G,0.27
11,A18C U58C U69A,0.37
12,A18C A35G A45C U58A,0.25
13,C17G C32U C37A U41C U58C U72C,0.26
14,C17U A18U U58C,0.15
15,C17G U26G A47G A75U,0.43
16,C17U A21G C40A U48C U80A,0.15
17,C17U A21G U41G A56G U69C,0.05
18,A18C U31C A45G G70A U74G A75U,0.3
19,A18C A45G U69C,0.16
20,A18G A20C A28G U43A U54G,0.35
